One test addresses EIF3H-Flag (human) (UniProt O15372). Briefly: co-IP; co-expression in HEK293T, 10 uM MG132 for 4 h, whole cell lysates with anti-Flag M2 affinity gel at 4 C for 12 h, washed five times with RIPA buffer, immunoblotting. Background: In western blotting, separated proteins are transferred to a membrane and probed.
Test [1] concerns the target endogenous Snail (human (endogenous in KYSE510 and HEK293T)) (UniProt O95863). Briefly: co-IP; endogenous proteins of HEK293T cells with EIF3H knock-down (Fig. S2A), anti-Snail antibody, immunoblotting.
Test [2] shares this target. Briefly: co-IP; endogenous proteins of KYSE510 cells (also with EIF3H knock-down, Fig. S2B), anti-Snail antibody at 4 C for 12 h, protein A/G agarose beads, immunoblotting.
The target in test [3] is Snail-Flag (full length, wild type) (UniProt O95863). Briefly: co-IP; co-expression in HEK293T, 10 uM MG132 for 4 h, whole cell lysates with anti-Flag M2 affinity gel at 4 C for 12 h, washed five times with RIPA buffer, immunoblotting.

Chains of the proteins cited; added tags and fusions are not shown.
UniProt O15372: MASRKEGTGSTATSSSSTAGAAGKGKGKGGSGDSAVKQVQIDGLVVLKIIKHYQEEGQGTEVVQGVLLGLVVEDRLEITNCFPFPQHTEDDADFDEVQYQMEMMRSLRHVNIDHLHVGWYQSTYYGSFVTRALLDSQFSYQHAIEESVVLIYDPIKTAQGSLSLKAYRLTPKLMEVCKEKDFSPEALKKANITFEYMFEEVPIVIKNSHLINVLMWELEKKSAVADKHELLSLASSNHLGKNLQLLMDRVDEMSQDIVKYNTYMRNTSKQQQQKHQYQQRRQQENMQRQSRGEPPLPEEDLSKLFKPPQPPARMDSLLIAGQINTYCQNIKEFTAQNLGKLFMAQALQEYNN
UniProt O95863: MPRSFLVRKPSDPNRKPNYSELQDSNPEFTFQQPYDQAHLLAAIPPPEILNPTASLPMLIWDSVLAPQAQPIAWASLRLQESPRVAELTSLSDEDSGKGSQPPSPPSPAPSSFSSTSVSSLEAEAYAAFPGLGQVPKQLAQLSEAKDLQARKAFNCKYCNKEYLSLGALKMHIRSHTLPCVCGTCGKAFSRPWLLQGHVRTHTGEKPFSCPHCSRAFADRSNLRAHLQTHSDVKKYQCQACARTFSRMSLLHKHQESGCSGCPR
UniProt Q13347: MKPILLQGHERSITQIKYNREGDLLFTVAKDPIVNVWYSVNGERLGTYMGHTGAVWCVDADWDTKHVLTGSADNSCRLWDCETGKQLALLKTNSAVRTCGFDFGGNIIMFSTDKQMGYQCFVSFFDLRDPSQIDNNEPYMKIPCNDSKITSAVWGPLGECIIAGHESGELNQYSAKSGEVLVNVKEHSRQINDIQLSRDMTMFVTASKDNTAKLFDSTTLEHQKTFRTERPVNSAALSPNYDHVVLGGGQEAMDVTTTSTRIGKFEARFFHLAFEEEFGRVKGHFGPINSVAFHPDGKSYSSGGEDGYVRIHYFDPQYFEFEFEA

No constants are given. Whether binding was seen depends on the method and setting. In cells and extracts the contact can be indirect. Some entries that bind do so weakly or less than the wild type.

In the case of “Snail (untagged, transfected) (from UniProt O95863 1-264)”, in the test with EIF3H-Flag (human), the binding entry is reported as “binds”.
“EIF3I (endogenous) (from UniProt Q13347 1-325)”: the binding result in test [1] and in test [2] was “no binding” each time.
On to “EIF3H (untagged, transfected) (from UniProt O15372 1-352)”, for which, in test [3], the binding result is recorded as “binds”.
On to “endogenous EIF3H (from UniProt O15372 1-352)”, for which the binding entry in test [1] and in test [2] was “binds” throughout.

The record behind these values is paper PMC7457539.
